The list shows a part of the results. At the low end of the ranking the order means little.

This assay has as its target SIX1-Q177R homeodomain (UniProt Q15475). In words: universal protein binding microarray. As to conditions: Universal all-10-mer PBM (8x60K, AMADID 030236), 300 nM GST-tagged protein, Alexa Fluor 488 anti-GST; buffer, salt, pH and temperature not stated; high values mean tight binding; most listed sequences are background and not binding sites; double strand, one strand shown.
In the case of GAGACACC, the binding signal came out at 0.462 E-score.
The same measure for ACTACTAG: 0.123 E-score; for GAGATCTA: -0.268 E-score.
The same measure for AAGCTAGG: -0.179 E-score; for CCGGTGTC: 0.489 E-score; for CTAATACA: 0.148 E-score.
Take AAATGCAA: the binding signal is -0.132 E-score.
Consider ATTCGCGA, for which the binding signal worked out at 0.128 E-score.
To CAGGATCA belongs 0.113 E-score; to AGCAACCA, -0.166 E-score.
The same measure for ACACGCTC: 0.384 E-score.
The same measure for CCGACCCG: 0.176 E-score.
AATTTAGG: the binding signal stood at 0.0287 E-score.
The same measure for CCGAGCAA: -0.197 E-score; for CACGTTCG: 0.0313 E-score.
To CGGGTCGA belongs 0.0721 E-score; to AGCGTGCC, -0.0349 E-score.
As for ACCTCTAG, the binding signal is -0.0182 E-score.
To AACGCCAG belongs 0.0176 E-score; to CAGGACAG, -0.305 E-score; to CGTATCAG, 0.0587 E-score.
As for GGTCGATA, the binding signal was determined as 0.0901 E-score.
The same measure for AGTGCTCG: 0.0628 E-score; for ACACTATC: 0.342 E-score.
As to AAAGATCT, the binding signal is -0.263 E-score.
The same measure for ACGCTTCC: -0.0372 E-score.
To GGTTCCCA belongs -0.146 E-score; to GCCAAGTA, -0.0633 E-score.
In the case of CAGGGGTA, the binding signal amounted to 0.234 E-score.
To GACTGGGA belongs 0.0378 E-score; to ATAAAGAC, -0.107 E-score; to GAACCCTC, 0.0902 E-score.
Consider TGAAGTCA, for which the binding signal was -0.152 E-score.
The same measure for ACCCTTGG: 0.135 E-score; for CCATGACA: 0.222 E-score; for ATAATGTA: -0.00813 E-score.
In the case of GATGCCGC, the binding signal was -0.0579 E-score.
To ACTCGCAC belongs 0.0529 E-score.
To CGTGAAGC belongs -0.243 E-score; to GCTAGCTA, -0.15 E-score.
To AGTTACGA belongs -0.0452 E-score.
In the case of CTCCACAA, the binding signal is 0.0443 E-score.
To AGCAACGC belongs -0.0353 E-score.
The same measure for ATGAACGG: -0.0572 E-score; for GGATGATA: 0.11 E-score.
To ACTCAACG belongs 0.00809 E-score; to AGTCATGA, -0.0989 E-score; to GGAATTTA, -0.235 E-score.
Turning to GACACTGA, the binding signal is 0.403 E-score.
For ATCTGAGC, the binding signal is -0.192 E-score.
The same measure for CCGACATC: 0.109 E-score; for GGCCAAAA: -0.228 E-score.
For the sequence ACAGTGCA, the binding signal is 0.125 E-score.
The same measure for CCCGATCA: -0.0101 E-score; for CATAGTAC: 0.135 E-score.
With CGACGTGA, the binding signal was -0.00209 E-score.
To CATCCGTC belongs -0.121 E-score.
The same measure for ATCGTCTG: -0.213 E-score; for ATACTCGG: 0.127 E-score.
The same measure for CTCGGCGA: -0.0668 E-score; for ATAAATCC: -0.0698 E-score; for CGTCACGA: -0.15 E-score.
With ACTTTTAT, the binding signal is -0.247 E-score.
The same measure for GGGGACCC: -0.000785 E-score; for GCAGGCCC: -0.216 E-score.
To AGTTGGGA belongs -0.00893 E-score.
The same measure for GCGGTCTA: -0.0255 E-score; for ATATAGCC: 0.104 E-score; for ATGCTCGA: -0.179 E-score.
For the sequence CCCCGACG, the binding signal turned out to be 0.162 E-score.
The same measure for ATCATTGG: -0.0499 E-score; for GACCTATC: -0.192 E-score; for CTAGAAAC: -0.225 E-score.
For the sequence CAGGACTC, the binding signal is -0.121 E-score.
To AATCCTGA belongs -0.161 E-score; to CATCACCA, -0.051 E-score.
The same measure for TGCAGCCA: -0.113 E-score; for AAGTGAGT: 0.0521 E-score; for CCGTCCTC: -0.014 E-score.
The same measure for ATATGTAG: -0.172 E-score; for CTTTTCGC: 0.0525 E-score; for CCCAAGCG: 0.0425 E-score.
Turning to TGAGCTAA, the binding signal was -0.0211 E-score.
As for GTCCGCGA, the binding signal is -0.1 E-score.
The same measure for CGCAATCC: -0.0666 E-score; for AGAACCTA: -0.0418 E-score.
As for CCCCTTAC, the binding signal was determined as 0.245 E-score.
With ATTCGCTG, the binding signal was -0.306 E-score.
The same measure for CAGAGAAC: -0.0777 E-score.
To GCATATAC belongs 0.106 E-score.
To CGCCCAAC belongs 0.0847 E-score; to GCTCTGTA, -0.125 E-score.
AGCTCATC: the binding signal was -0.153 E-score.
The same measure for CTACTTGA: -0.0567 E-score.
The same measure for GGGACTAA: -0.128 E-score; for CATACTGC: -0.216 E-score.
To AACGGTTC belongs -0.242 E-score; to ATTCCTGG, -0.138 E-score.
On to GATTCATA, for which the binding signal was -0.179 E-score.
To CCATAGTC belongs -0.233 E-score; to ATCAATAC, -0.0568 E-score; to AGCCTTGA, -0.104 E-score.
To TACAGACA belongs -0.0477 E-score.
To ACCTGTGG belongs 0.01 E-score; to ATGGGCGC, -0.138 E-score; to ACAGAATG, -0.165 E-score.
On to GTCGGGGA, for which the binding signal is 0.084 E-score.
To AGGTCAAG belongs -0.0848 E-score; to GCCCGCCA, -0.0192 E-score.

For the origin of these results see PMC10668032.
